Assay results reported in the RNAGym collection of RNA variant scans (doi:10.7554/elife.90254).
Read counts are not given, so values of variants with three or more changes are uncertain.

B1: LINE1-mini (parent)
chain: GGCAGAGCUCAACACAGCGUGGCAAAGUGGCUGUGGCUAGACUGCC

Variants of: B1
Assay: self-cleavage, relative activity (ratio to wild type); higher = more cleavage; in vitro, sequencing; the parent is a self-cleaving ribozyme

Variant | self-cleavage
G5A A25U C45U | 0.28
G5A A25U G27U | 0.09
G5A A25U U28A C37A | 0.05
G5A A25U U32A | 0.06
G5A A25U U32G | 0.07
G5A A26G C37G C42A | 0.07
G5A A26G G29U C31U G36U | 0.06
G5A A26U A39G | 0.05
G5A A26U A39U U43C | 0.05
G5A A26U G27C G29U C31A | 0.02
G5A A26U G30A C42G | 0.12
G5A A26U U34A A39C A41G | 0
G5A A26U U38A U43G C45G | 0.07
G5A A39C C45A | 0.04
G5A A41C C46A | 0.06
G5A A41U C42U G44C | 0.02
G5A A41U C45A | 0.08
G5A C8A A12C A14C U34G | 0.02
G5A C8A A12G G17C | 0.41
G5A C8A A12U U38A C46G | 0.08
G5A C8A A16U G17U U32A C42U | 0.32
G5A C8A A24U | 0.09
G5A C8A A25C U34A | 0.49
G5A C8A A25U G30C C31G U43C | 0.32

Variant | self-cleavage
G5A C8A C10A C18U | 0.03
G5A C8A C23U G29A C37U | 0.22
G5A C8A G22A G36A C45A | 0.47
G5A C8G A11C | 0.03
G5A C8G A11U A24C | 0.01
G5A C8G A12U G35C | 0.01
G5A C8G A25C G27U C31G | 0.07
G5A C8G C10A C18U | 0.04
G5A C8G C18U A24C A41U | 0.02
G5A C8G C31U | 0.07
G5A C8G U28C | 0.39
G5A C8U A11U G33U G35U | 0
G5A C8U A14U A24U C31A | 0.17
G5A C8U A16G C45A | 0.15
G5A C8U A24C C31U U32G | 0.02
G5A C8U A25U A26C G35C | 0.03
G5A C8U A39G | 0.03
G5A C8U C15G C45A | 0.06
G5A C8U C31A C46G | 0.82
G5A C8U G17A G40A | 0.29
G5A C8U G17U A24U A26G | 0.39
G5A C8U G22U G30A | 1.07
G5A C8U U9C C10A A24U G35U U43G | 0.02
G5A C8U U32A C37U C42A G44A | 0.24

Variant | self-cleavage
G5A C10A A11G C37U | 0.02
G5A C10A A12C G27U G29U A41U | 0
G5A C10A A14G A24U | 0.01
G5A C10A A14U G19A | 0.04
G5A C10A A39G A41G | 0.01
G5A C10A A39U A41U | 0.03
G5A C10A C13U U38C | 0.02
G5A C10A C23U G44A | 0.02
G5A C10A C42G | 0.05
G5A C10A G17C G19U C42A | 0.03
G5A C10A G17U G27A | 0.06
G5A C10A G19C | 0.01
G5A C10A G21C | 0.04
G5A C10A G21U A24U G27U | 0.02
G5A C10A G22A | 0.04
G5A C10A G22A U34A A39U | 0.02
G5A C10A G22U G40A | 0
G5A C10A G30U C31U U32A C37G U43A | 0.01
G5A C10A U20G | 0.02
G5A C10A U32C C37A G44U | 0.04
G5A C10A U32C C37U G40A | 0.03
G5A C10G A11C C45U | 0.03
G5A C10G A12G A16U | 0.01
G5A C10G C13A A25U | 0.04

Variant | self-cleavage
G5A C10G C15A G22U U32G G44U C45G | 0.01
G5A C10G C23A U32A C42A | 0.01
G5A C10G G17A C18U G27U G29A C42U | 0.04
G5A C10G G17A G35U A39U | 0.01
G5A C10G G27U U28A A39G | 0.01
G5A C10G G36A U43A | 0.01
G5A C10G U20G U28A | 0.02
G5A C10G U28C C46G | 0.03
G5A C10U A11G G36U C45A | 0
G5A C10U A12C G17C G19C U20G | 0.01
G5A C10U A24C C31G C37G | 0.04
G5A C10U A25U | 0.12
G5A C10U C15A U32C G36U | 0.01
G5A C10U C18G G27A G36A G40U C42U G44U | 0.07
G5A C10U C31G | 0.05
G5A C10U C42A | 0.07
G5A C10U G17U | 0.06
G5A C10U G19U U32G C37U | 0.01
G5A C10U G21A C23G G36A | 0.03
G5A C10U G29C G33A | 0.03
G5A C13A C15A A26C | 0.05
G5A C13A C15G C37A C45A | 0.02
G5A C13A C15G G36U C37G | 0.33
G5A C13A G19U G27A G40C | 0.04

Variant | self-cleavage
G5A C13A G21A | 0.03
G5A C13A G27U | 0.13
G5A C13A G29C G33U C37U | 0.02
G5A C13G C31A G33U | 0.02
G5A C13G C37A | 0.08
G5A C13G G21A C31U | 0.06
G5A C13G G22A A25U G44C C45A | 0.08
G5A C13G G27A | 0.04
G5A C13G U20A G30A | 0.04
G5A C13U A14U G21U | 0.11
G5A C13U C15G A16U A25G A39U A41U | 0.03
G5A C13U C18A | 0.12
G5A C13U C18U A25G G30A | 0.05
G5A C13U C37G | 0.05
G5A C13U G17A G27A | 0.06
G5A C13U G19A | 0.19
G5A C13U G29U C45A | 0.12
G5A C13U G30C | 0.04
G5A C13U G40A | 0.12
G5A C13U U28A | 0.1
G5A C15A A26C C37G | 0.02
G5A C15A G21U G29C G30A | 0.03
G5A C15A G29A G40A | 0.01
G5A C15A G36C U38A | 0.06

Variant | self-cleavage
G5A C15A G40A | 0.04
G5A C15A G40U | 0.03
G5A C15A G44U | 0.02
G5A C15A U20A U32C | 0.01
G5A C15A U32C C37G C46A | 0
G5A C15A U38C | 0.06
G5A C15G G17U C46U | 0.07
G5A C15G G29U U34A | 0.03
G5A C15U A16U C18G G21C G27C | 0.08
G5A C15U G17A A25C G35U | 0.07
G5A C15U G27A U28A U38G C42G | 0.02
G5A C15U G44A | 0.06
G5A C18A A24G G29C G44C | 0.01
G5A C18A C37U C46A | 0.17
G5A C18A G19U C46A | 0.06
G5A C18A G30U G35A U43G | 0.02
G5A C18A U20G C23U C31A | 0.02
G5A C18A U38C U43A | 0.03
G5A C18G G44A | 0.04
G5A C18G U20G | 0.21
G5A C18U C46U | 0.13
G5A C18U G22U A41C C42A | 0.07
G5A C18U G27U | 0
G5A C18U G33U | 0.05

Variant | self-cleavage
G5A C18U G35A C42G | 0.06
G5A C18U G35C U38C | 0.04
G5A C18U G36U | 0.12
G5A C18U G44U | 0.24
G5A C23A A26G | 0.03
G5A C23A A39C U43C G44U | 0.05
G5A C23A A39U | 0.04
G5A C23A G40U | 0.08
G5A C23G G35C C46U | 0.07
G5A C23G U28A | 0.19
G5A C23U A26C | 0.05
G5A C23U C46G | 0.06
G5A C23U G30U | 0.04
G5A C31G G40C | 0.03
G5A C31G U34G C37G | 0
G5A C31U G40C | 0.16
G5A C37A A41C | 0.02
G5A C37A G40U | 0.12
G5A C37G A39G | 0.03
G5A C37U A39C G44U | 0.17
G5A C42G C45U C46U | 0.05
G5A C45U C46G | 0.12
G5A G7A A12G A16U G29C | 0.05
